Hit rate of the full screen: of about 230,000 compounds, about 1,500 (0.65%) were called active. Inconclusive means that the source gave no clear call. Such entries were picked first, then a sample of the others. The call rests on the fitted dose curve; in most records, active means well fitted inhibition curve with a large enough effect; inconclusive means small, poorly fitted or top-dose-only effect; inactive means no such curve, though single readings can be large or run the other way. A potency beside an inconclusive call is a rough fit, not a confirmed value.
Molecular target: Lethal(3)malignant brain tumor-like protein 1 (Homo sapiens) (UniProt Q9Y468)
Sequence of UniProt Q9Y468 (Q9Y468 whole entry, looked up): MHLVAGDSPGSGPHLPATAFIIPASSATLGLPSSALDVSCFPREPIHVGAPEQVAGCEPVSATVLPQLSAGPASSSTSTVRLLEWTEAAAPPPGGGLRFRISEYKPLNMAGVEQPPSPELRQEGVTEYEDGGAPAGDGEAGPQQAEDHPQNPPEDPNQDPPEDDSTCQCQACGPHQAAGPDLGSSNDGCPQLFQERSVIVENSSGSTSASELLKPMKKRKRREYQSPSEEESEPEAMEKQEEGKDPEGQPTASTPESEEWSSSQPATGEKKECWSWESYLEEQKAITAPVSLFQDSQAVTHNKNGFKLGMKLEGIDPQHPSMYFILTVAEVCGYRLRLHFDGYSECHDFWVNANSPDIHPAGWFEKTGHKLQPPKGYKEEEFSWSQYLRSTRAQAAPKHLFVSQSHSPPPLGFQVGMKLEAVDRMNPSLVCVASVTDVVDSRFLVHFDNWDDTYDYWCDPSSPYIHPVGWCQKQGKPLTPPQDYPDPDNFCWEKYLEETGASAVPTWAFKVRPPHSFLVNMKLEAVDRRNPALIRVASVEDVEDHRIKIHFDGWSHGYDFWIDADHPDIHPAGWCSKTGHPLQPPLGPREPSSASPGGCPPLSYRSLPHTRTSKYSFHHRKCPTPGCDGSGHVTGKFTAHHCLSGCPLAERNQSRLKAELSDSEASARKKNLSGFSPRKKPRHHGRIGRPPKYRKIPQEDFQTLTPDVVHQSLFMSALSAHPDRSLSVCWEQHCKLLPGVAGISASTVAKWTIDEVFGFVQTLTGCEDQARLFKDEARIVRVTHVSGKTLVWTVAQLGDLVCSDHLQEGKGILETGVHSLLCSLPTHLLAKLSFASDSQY
Experiment: qHTS Assay for the Inhibitors of L3MBTL1; further: nearly all actives have a fitted effect of over 60% in size
Details: AlphaScreen L3MBTL1–H3K9me1 peptide binding; activity, negative = inhibition: at 57.1 µM (top of the series)
In short: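 L3MBTL1 (50 nM) pre-complexed 30 min with biotinylated H3(1-15)K9me1 peptide (75 nM), then compounds added for 30 min at room temperature; AlphaScreen streptavidin donor/nickel chelate acceptor beads (10 ug/mL final) read after 30 min dark incubation.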
On the % scale 0 is the no-effect control and ±100 the full control effect; potency means the concentration at half of the fitted maximal effect; tags describe the fitted curve by direction and shape.

SMILES	activity, negative = inhibition	Potency
Cc1ccc(NC(=O)CC(C(=O)O)c2ccccc2)cc1 (configuration not stated)	inactive: 1.07%	–
C=CCOc1cccc(C(=O)N2CCCC(CCC(=O)NCc3ccccc3F)C2)c1 (configuration not stated)	inactive: 32.5%	–
Nc1cc(-c2ccc(OC(F)(F)F)cc2)nn1-c1ccc(Cl)c(Cl)c1	–	inconclusive: 20 µM [inhibitor, partial curve]
Cc1cc(C)c(NC(=O)COc2nncc3ccccc23)c(C)c1	inactive: 3.42%	–
O=C(/C=C/c1ccc(Br)o1)Nc1nnc(C2CC2)s1	inactive: -7.68%	–
CC[n+]1c(/C=C(\C)OC)sc2ccccc21	inactive: -5.52%	–
Cc1cc(C(=O)OCC(=O)Nc2sc3c(c2C#N)CCC(C)C3)c2ccccc2n1 (configuration not stated)	–	inconclusive: 39.8 µM [inhibitor, single point]
Nc1cc(S(=O)(=O)N2CCOCC2)ccc1N1CCOCC1	inactive: -1.41%	–
CCOC(=O)c1cc(-c2ccc(OC)cc2)nn1-c1ccccc1C(=O)O	–	inconclusive: 12.6 µM [inhibitor, partial curve]
O=C1CCN(Cc2ccccc2)CCN1[C@H](COc1ccccc1)Cc1ccccc1	–	inconclusive: 0.708 µM [inhibitor, single point]
Cc1nc2scc(-c3ccc(C(C)(C)C)cc3)c2c(=O)n1N	inactive: -5.94%	–
O=C(N/N=C\c1cc(Br)c(Br)o1)C1COc2ccccc2O1 (configuration not stated)	–	inconclusive: 28.2 µM [inhibitor, partial curve]
CNc1ccc(/C=C/C(=O)c2cccc3ccccc23)cc1[N+](=O)[O-]	–	inconclusive: 17.8 µM [inhibitor, partial curve]
O=C1CN(C(=O)COC(=O)c2ccc([N+](=O)[O-])s2)c2ccccc2N1	–	inconclusive: 22.4 µM [inhibitor, single point]
CN1CCN(S(=O)(=O)Cc2ccc(Cl)cc2)CC1	–	inconclusive: 10 µM [inhibitor, partial curve]
NC(=O)C1CCN(C2=C(Cl)C(=O)c3ccccc3C2=O)CC1	–	inconclusive: 39.8 µM [inhibitor, single point]
CC(Sc1cccc[n+]1[O-])c1ccccc1 (configuration not stated)	–	inconclusive: 6.31 µM [inhibitor, single point]
Cc1ccc(C(=O)Nc2nnc(-c3ccncc3)o2)cc1	–	inconclusive: 20 µM [inhibitor, partial curve, poor fit]
C/C(=N\NC(=S)NCCc1ccccc1)c1cccc(Br)c1	inactive: -1.67% [at 11.4 µM]	–

SMILES	activity, negative = inhibition	Potency
O=C(Nc1ccc2c(c1)OCO2)c1ccc(Br)c(S(=O)(=O)N2CCCC2)c1	–	inconclusive: 31.6 µM [inhibitor, single point]
CN(CC(=O)Nc1ccc(N2CCOCC2)cc1)C(=O)c1cn(-c2ccccc2)nc1-c1ccccc1	inactive: -5.45%	–
COc1ccc(CN2C(=O)/C(=C/c3ccncc3)SC2=S)cc1	–	inconclusive: 39.8 µM [inhibitor, single point]
Cc1c(-n2c(SCC(C)C)nc3ccccc3c2=O)c(=O)n(-c2ccccc2)n1C	inactive: 1.12%	–
Cc1ccc(S(=O)(=O)NC(=O)Nc2ccccc2F)cc1	–	inconclusive: 3.98 µM [inhibitor, full curve]
CSc1c(-c2ccccc2)nc2ccc(Cl)cc2c1C(=O)O	inactive: -5.51%	–
COc1ccc(C2=Nn3c(nnc3-c3ccccn3)SC2)cc1OC	–	active: 25.1 µM
O=C(Nc1ccc(Cl)cc1)c1ccc(-n2cccn2)c([N+](=O)[O-])c1	–	inconclusive: 5.62 µM [inhibitor, single point]
CC(=O)OCCNc1cc(N2CCN(C)CC2)c2noc3c2c1C(=O)c1ccccc1-3	–	inconclusive: 17.8 µM [inhibitor, partial curve]
O=C(c1ccncc1)c1ccc([N+](=O)[O-])cc1	–	inconclusive: 25.1 µM [inhibitor, partial curve, poor fit]
CCOc1cc(NC(=S)Nc2ccccc2OC)c(OCC)cc1NC(=O)c1ccccc1C	–	inconclusive: 35.5 µM [inhibitor, single point]
Cc1ccc(/C=N/NC(=O)CNC(=O)COc2ccccc2)cc1	inactive: -3.19%	–
COc1ccc(Nc2nc(Cl)nc(N3CCN(c4ccc(OC)cc4)CC3)n2)cc1	–	inconclusive: 3.55 µM [inhibitor, partial curve]
CCCCn1c(N)c(N(CCC(C)C)C(=O)COC(=O)c2ccc([N+](=O)[O-])s2)c(=O)[nH]c1=O	–	inconclusive: 20 µM [inhibitor, single point]
Cc1cc([N+](=O)[O-])cc([N+](=O)[O-])c1NCC(C)C	–	inconclusive: 2.82 µM [inhibitor, full curve, poor fit]
CC(C)CC(NC(N)=O)C(=O)Nc1ccc2c(c1)OCO2 (configuration not stated)	–	inconclusive: 10 µM [inhibitor, partial curve, poor fit]
Cc1nn(Cc2ccc(C(=O)NN)cc2)c(C)c1Cl	inactive: 4.83%	–
C/C(=N\Nc1ncc(Cl)cc1Cl)c1ccc(C#N)cc1	–	inconclusive: 25.1 µM [inhibitor, partial curve]
O=C(/C=C/c1ccco1)NC(=S)NNC(=O)c1ccco1	–	inconclusive: 39.8 µM [inhibitor, single point]

SMILES	activity, negative = inhibition	Potency
Cc1sc2ncnc(N/N=C/c3ccccc3O)c2c1C	–	inconclusive: 28.2 µM [inhibitor, single point]
CC(C)c1ccc(NC(=O)CNCC(c2ccccc2)N(C)C)cc1 (configuration not stated)	–	inconclusive: 3.98 µM [inhibitor, partial curve]
CCn1c(O)c(N=NC(=O)CNc2cccc(C)c2)c2ccccc21	–	inconclusive: 25.1 µM [inhibitor, single point]
CC(C)c1ccc(NC(=O)COC(=O)[C@H](CCC(N)=O)NC(=O)c2ccc(F)cc2)cc1	–	inconclusive: 6.31 µM [inhibitor, single point]
Cc1sc2nc(C3CC3)nc(N3CCN(S(=O)(=O)c4ccc(F)cc4)CC3)c2c1C	inactive: 8.36%	–
COC(=O)COc1ccc(S(=O)(=O)Nc2ccccc2SC)cc1	–	inconclusive: 8.91 µM [inhibitor, partial curve]
O=S1(=O)N=C2CCCCCN2C(c2ccc(F)cc2)N1 (configuration not stated)	inactive: -3.01%	–
O=C(CCN1CCCCC1)NNC(=S)NC(=O)c1ccc(Br)cc1	–	inconclusive: 11.2 µM [inhibitor, partial curve]
Cc1cc(/C=N/N2CCN(C)CC2)c(C)n1-c1ccc(Cl)cc1	–	inconclusive: 35.5 µM [inhibitor, single point]
Nn1c(SCc2nc3ccccc3[nH]2)nnc1-c1cccnc1	inactive: -0.393%	–
O=C1S/C(=C\C=C\c2ccco2)C(=O)N1c1ccccc1	–	inconclusive: 28.2 µM [inhibitor, single point]
Cc1ccc(C)c2nc3sc(C(=O)O)cc3cc12	–	inconclusive: 1 µM [inhibitor, full curve, poor fit]
CCc1ccccc1OCC(=O)Nc1nc(-c2cccnc2)cs1	–	inconclusive: 2 µM [inhibitor, partial curve]
O=C1C=C(Nc2cccc3cccnc23)c2ccccc2C1=O	–	inconclusive: 39.8 µM [inhibitor, single point]
Cc1ccccc1N1CCN(C(=O)c2ccc(Oc3ccc(C(F)(F)F)cn3)cc2)CC1	–	inconclusive: 7.08 µM [inhibitor, single point]
CC(C)(C)c1csc(Sc2ncccc2[N+](=O)[O-])n1	–	inconclusive: 8.91 µM [inhibitor, full curve, poor fit]
O=C1C(Nc2ccccc2)=C/C(=N/S(=O)(=O)c2cccs2)c2ccccc21	–	active: 6.31 µM
COc1ccc2c(c1)sc(N)[n+]2Cc1cc(C)cc2cccnc12	inactive: -0.214%	–
Cc1ccc(C(=O)O/N=C\c2ccc(N3CCCCC3)c([N+](=O)[O-])c2)cc1	–	inconclusive: 4.47 µM [inhibitor, full curve]

— PubChem BioAssay AID485360 (National Center for Advancing Translational Sciences (NCATS), 2010)
